# Assay results from PubChem BioAssay AID1745853 (National Center for Advancing Translational Sciences (NCATS), 2022).
# Some of the results follow. Further columns of the screen follow, without active or inactive calls.
# Legend:
# Assay in all cases: Primary Screen for Target Class Profiling of Small Molecule Inhibitors of Methyltransferases
# [1] = molecular target: Glycine N-methyltransferase (Homo sapiens) (UniProt Q14749); conditions: purified enzyme, MTase-Glo SAH luminescence; measured here: GNMT inhibition; at 40 µM; stronger effect = lower value
# Summary of the method: (§1)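 Each enzyme was reacted with SAM and its substrate, with compounds tested once at 40 uM; SAH formed was read by MTase-Glo luminescence.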
# [2] = molecular target: Guanidinoacetate N-methyltransferase (Homo sapiens) (UniProt Q14353); conditions: purified enzyme, MTase-Glo SAH luminescence; measured here: GAMT inhibition; at 40 µM; stronger effect = lower value
# Summary of the method: as §1
# [3] = molecular target: Histamine N-methyltransferase (Homo sapiens) (UniProt P50135); conditions: purified enzyme, MTase-Glo SAH luminescence; measured here: HNMT inhibition; at 40 µM; stronger effect = lower value
# Summary of the method: as §1
# [4] = molecular target: Nicotinamide N-methyltransferase (Homo sapiens) (UniProt P40261); conditions: purified enzyme, MTase-Glo SAH luminescence; measured here: NNMT inhibition; at 40 µM; stronger effect = lower value
# Summary of the method: as §1
# [5] = molecular target: Phenylethanolamine N-methyltransferase (Homo sapiens) (UniProt P11086); conditions: purified enzyme, MTase-Glo SAH luminescence; measured here: PNMT inhibition; at 40 µM; stronger effect = lower value
# Summary of the method: as §1
# % is set by controls: 0 for no effect and ±100 for the full control effect.
SMILES,"activity change, negative = inhibition [1] [%]","activity change, negative = inhibition [2] [%]","activity change, negative = inhibition [3] [%]","activity change, negative = inhibition [4] [%]","activity change, negative = inhibition [5] [%]"
CC1(C)CC[C@]2(C(=O)O)CC[C@]3(C)C(=CCC4[C@@]5(C)C[C@@H](O)[C@H](O)[C@](C)(CO)C5CC[C@]43C)[C@@H]2[C@@H]1O (stereo partly specified),-4.46,-6.53,-0.04,-16.6,-13.9
COc1ccc(OC)c(S(=O)(=O)Nc2nc3c(s2)C[C@]2(C)CC[C@@H]4[C@H](OC(=O)[C@H]4C)[C@H]2[C@@H]3C)c1,-10.6,-2.05,-2.12,-5.49,-1.98
Cc1noc(C)c1-c1cn(C)c(=O)n2cc(COc3ccc(Cl)cc3)nc12,-4.05,-4.78,-2.81,-9.18,1.77
CCOC(=O)c1cc2n(n1)CC(C)(C(=O)NCc1ccccc1)N(c1cc(C)cc(C)c1)C2=O (stereo unspecified),0.991,0,1.62,0.102,-1.8
CC(C)CCn1c(=O)c2ccc(C(=O)NC(C)C)cc2n2c(=O)n(CC(=O)c3ccccc3)nc12,1.63,1.26,-1.18,-5.94,-1.92
COc1cc(CNC(=O)CCCCCCC(C)C)ccc1O,-15.8,1.26,-0.994,-13.4,0.762
Cc1cc2[nH]c(=O)[nH]c2cc1S(=O)(=O)N1CCN(C2CCCCC2)CC1,-0.262,3.56,-22.9,-11.2,-9.43
CCNC(=O)Nc1ncc(-c2cc(-c3c(C)cc(OC)cc3C)nc(-c3cnccn3)n2)s1,0.499,-0.808,3.97,-16.2,-6.78
CS(=O)(=O)N(Cc1ccccn1)C1CN(C(=O)Cn2c(=O)oc3ccccc32)C1,5.41,2.96,1.22,2.08,1.1
COc1cccc(CNC(=O)Cn2c(=O)oc3cc(S(=O)(=O)N4CC(C)CC(C)C4)ccc32)c1 (stereo unspecified),0.133,3.26,-6.8,-3.18,-4.98
Cc1cccc(Cn2nc3n(CCCOC(C)C)c(=O)c4ccccc4n3c2=O)c1,-0.578,0,11.8,-3.54,2.51
N#CC[C@H](C1CCCC1)n1cc(-c2ncnc3[nH]ccc23)cn1,,-0.415,,-36.4,-7.42
CC(=O)O[C@@H]1C2=C(O)C(=O)[C@](C)(OC(C)=O)C(=O)C2=CO[C@@]12O[C@@H](C)CC[C@H]2OC(C)=O,-2.24,1.02,6.62,-13.5,-11.6
Cc1ccc(Nc2ccn3c(=O)n(CC(=O)Nc4cc(F)ccc4F)nc3n2)cc1,7.07,0,2.73,-3,1.58
CCNC(=O)N1CCCCCC1CN1CCC(C)CC1 (stereo unspecified),-2.18,-1.64,1.22,-2.35,-3.84
CCCn1c(=O)c2ccc(C(=O)NC3CCCCC3)cc2n2c(SCC(=O)NC3CCCC3)nnc12,5.28,0.157,8.3,7.18,4.55
Cc1sc2ncn(CC(=O)NCc3ccc4c(c3)OCO4)c(=O)c2c1S(=O)(=O)N1CCC(C)CC1,-3.58,-0.842,-8.82,-3.37,-13.6
COC1=CC(=O)O/C1=C(/OC)[C@@H]1O[C@H]1c1ccccc1,-17.8,2.85,6.26,-10,2.79
CC(O)CN1CC2(CCC1=O)CCN(CCCn1ccnc1)CC2 (stereo unspecified),0.34,5.74,-0.257,-0.871,-1.69

SMILES,"activity change, negative = inhibition [1] [%]","activity change, negative = inhibition [2] [%]","activity change, negative = inhibition [3] [%]","activity change, negative = inhibition [4] [%]","activity change, negative = inhibition [5] [%]"
C[C@H](c1ccccc1)N1C(=O)[C@@H]2CN(C(=O)CC(C)(C)C)CCN2C1=O,-0.194,3.9,2.17,1.62,8.35
CC(C)NC(=O)O[C@@H]1CC[C@]2(C)C(CC[C@@H](O)[C@H]2CC(=O)NCc2ccco2)[C@]1(C)CO (stereo partly specified),-5.06,-0.306,-0.024,-2.39,2.5
CC1CCC(NC(=O)CCn2ccc3cc(S(=O)(=O)N4CCCC4)ccc32)CC1 (stereo unspecified),3,5.49,2.28,1.4,2.49
COC(=O)c1ncn2c1C(=O)N(Cc1ccc(OC)c(OC)c1)C(C)(C(=O)NC1CCCC1)C2 (stereo unspecified),-3.19,-2.09,-1.02,-2.56,-2.42
O=C(C1CC1)N1CCC2(CC1)NC(=O)N(c1cccc(Cl)c1)N2,-4.88,-6.55,0.081,-7.03,-4.03
N=c1nc(N2CCCCC2)cc(N)n1O,-3.46,2.17,-22.6,-5.03,5.17
O=C(CCc1nnc2n(Cc3ccc(F)cc3)c(=O)c3ccccc3n12)NC1CC1,-15.1,0,6.95,7.97,1.01
O=C(C[C@H]1NC(=O)c2ccccc2NC1=O)Nc1ccc(N2CCCS2(=O)=O)cc1,-3.49,-10.5,-0.276,-8.55,1.62
C[C@H](O)c1onc(-c2ccc(F)cc2)c1C(=O)N1CCCC1,-2.64,-3.7,1.42,-8.78,-1.13
CN1CCN([C@H]2CCN(Cc3cccs3)C[C@H]2CCC(=O)O)CC1,-5.3,-8.3,-1.93,-7.86,-4.39
CC(C)Cn1c(=O)c2ccc(C(=O)NC3CCCCC3)cc2n2c(=O)n(CC(=O)NC(C)C)nc12,11,3.42,12.6,7.67,7.17
CC(=O)N1CCCN(Cc2ccc3c(c2)OCO3)c2ccccc21,-9.34,-11.7,-8.12,-20.5,-3.16
COc1ccc(-c2cc3n(n2)CC(C)(C(=O)NCc2ccccc2OC)N(c2cccc(Cl)c2C)C3=O)cc1 (stereo unspecified),4.54,0,2.05,6.22,-0.999
Cc1ccc(NC(=O)c2cc3n(n2)CC(C)(C(=O)NC2CCCCC2)N(C)C3=O)cc1Cl (stereo unspecified),-1.26,0.713,-0.499,-4.14,-1.71
Cc1ccc(CNC(=O)c2cc3n(n2)CC(C)(C(=O)NCc2ccc(F)cc2)N(C)C3=O)cc1 (stereo unspecified),6.29,0,2.25,9.84,2.68
O=C(Nc1ccc(Oc2ccccc2)cc1)N[C@H]1CO[C@H]2[C@@H]1OC[C@@H]2n1nnnc1Oc1ccc(-n2cncn2)cc1,-3.75,-4.27,-3.64,-6.27,-6.83
O=S(=O)(Nc1cccc(-c2ccc(N3CCOCC3)nn2)c1)c1cc(C(F)(F)F)ccc1Cl,,-0.376,,-12.9,2.83
C[C@@H]1CN(c2c(F)c(F)c3c(=O)c(C(=O)O)cn(C4CC4)c3c2F)C[C@H](C)N1,1.58,-5.15,9.69,-7.37,5.37
